Consider 4 compounds from patent US4971965A, “Antibiotics TAN-1057” (Takeda Chemical Industries, Ltd., priority 1988, dated 1990).

≈ marks a conversion by molar mass, not a printed value.

This test concerns Pseudomonas aeruginosa C141V. The class given is cell-based. The following applies: read-out: Minimum Inhibitory Conc. (MIC). How it is done:
(Note 1) Measurement was conducted by employing a medium consisting of DY
medium [Bacto Antibiotic Medium 3 (Difco Laboratories, USA)(17.5 g), Bact
yeast extract(Difco Laboratories, USA)(5.0 g) and distilled water(pH
unadjusted)(1000 ml)], using approximately 10^6 colony forming unit/m
of inoculum, by means of the agar dilution method.
Regarding `CN1C(=O)C[C@H](CCCNC(=N)N)NC(=O)[C@H]1CNC(=N)NC(N)=O` [TAN-1057C], the MIC (in general, the least concentration at which growth counts as inhibited) stood at 50 µg/mL (≈ 141 µM).
To `CN1C(=O)C[C@H](CCCNC(=N)N)NC(=O)[C@@H]1CNC(=N)NC(N)=O` [TAN-1057D] belongs 1.25 µg/mL (≈ 3.52 µM); to `CN(C(=O)C[C@@H](N)CCCNC(=N)N)[C@@H]1CNC(NC(N)=O)=NC1=O` [TAN-1057B], 25 µg/mL (≈ 70.3 µM).
The same measure for `CN(C(=O)C[C@@H](N)CCCNC(=N)N)[C@H]1CNC(NC(N)=O)=NC1=O` [TAN-1057A]: 6.25 µg/mL (≈ 17.6 µM).
